Values quoted from earlier work in patent US20040053864A1, “Methods and compositions for control of bone formation via modulation of neuropeptide y activity” (priority 2002, published 2004).

Tests used:
NPY Y5 receptor = biological target: T1, NPY Y5 receptor (Homo sapiens, UniProt Q15761); settings: preliminary results in U.S. Pat. No. 5,968,819; cited from earlier work
T1 sequence (Q15761 1-445): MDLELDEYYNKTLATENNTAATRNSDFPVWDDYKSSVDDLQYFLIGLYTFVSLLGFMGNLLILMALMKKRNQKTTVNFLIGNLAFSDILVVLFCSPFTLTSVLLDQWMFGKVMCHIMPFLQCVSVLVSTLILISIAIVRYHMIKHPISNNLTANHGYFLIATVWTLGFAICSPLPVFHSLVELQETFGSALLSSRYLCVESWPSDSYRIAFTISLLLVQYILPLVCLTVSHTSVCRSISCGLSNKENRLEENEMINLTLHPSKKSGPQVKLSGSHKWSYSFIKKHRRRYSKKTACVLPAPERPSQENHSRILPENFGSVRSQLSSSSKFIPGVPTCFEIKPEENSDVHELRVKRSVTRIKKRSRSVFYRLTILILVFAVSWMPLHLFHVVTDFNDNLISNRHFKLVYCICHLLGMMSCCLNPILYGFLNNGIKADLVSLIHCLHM

human NPY Y1 receptor = biological target: T2, human NPY Y1 receptor (Homo sapiens, UniProt P25929); settings: in vitro, cell lines transfected with human NPY Y1 receptor cDNA; from U.S. Pat. No. 5,571,695; cited from earlier work
T2 construct: expressed in transfected cells
T2 sequence (P25929 1-384): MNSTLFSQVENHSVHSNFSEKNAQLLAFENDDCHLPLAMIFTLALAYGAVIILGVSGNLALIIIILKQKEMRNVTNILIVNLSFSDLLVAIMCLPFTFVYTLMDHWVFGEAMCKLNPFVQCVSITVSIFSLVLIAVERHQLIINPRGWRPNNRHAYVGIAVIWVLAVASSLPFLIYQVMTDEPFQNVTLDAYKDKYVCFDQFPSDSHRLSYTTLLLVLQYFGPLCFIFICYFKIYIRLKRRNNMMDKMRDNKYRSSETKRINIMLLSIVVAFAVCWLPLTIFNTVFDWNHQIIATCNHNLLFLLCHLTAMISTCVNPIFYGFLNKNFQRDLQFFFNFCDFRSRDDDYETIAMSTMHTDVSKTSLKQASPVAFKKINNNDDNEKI

NPY Y1 receptor = settings: in vivo; from U.S. Pat. No. 5,571,695; cited from earlier work

| Molecule | function at NPY Y5 receptor (NPY Y5 receptor) | ability to block the NPY-induced increase in intracellular calcium (human NPY Y1 receptor) | ability to block NPY Y1 receptor-mediated increases in blood pressure (NPY Y1 receptor) |
| --- | --- | --- | --- |
| NCC(N)(Cc1ccccc1)c1cccc2ccccc12 (stereo not drawn) [2-(Naphthalen-1-yl)-3-phenylpropane-1,2-diamine] | functions as an NPY Y5 receptor antagonist | – | – |
| SALRHY: hexapeptide corresponding to residues 22-27 of the NPY molecule; NPY Y1 receptor antagonist (listed as Homo sapiens) | – | block the NPY-induced increase in intracellular calcium | block NPY Y1 receptor-mediated increases in blood pressure |
